In publication PMC11077375 one finds binding data, which are given here for three molecules.

Sequences of proteins named here, by UniProt entry; tags and fusion partners are left off. A change or cut given only in a name is not applied to a line headed by its entry. A line that says so, or that is headed by a name, gives the form on record, which may keep a tag or linker. Residues count along the entry.
UniProt Q9EPK5: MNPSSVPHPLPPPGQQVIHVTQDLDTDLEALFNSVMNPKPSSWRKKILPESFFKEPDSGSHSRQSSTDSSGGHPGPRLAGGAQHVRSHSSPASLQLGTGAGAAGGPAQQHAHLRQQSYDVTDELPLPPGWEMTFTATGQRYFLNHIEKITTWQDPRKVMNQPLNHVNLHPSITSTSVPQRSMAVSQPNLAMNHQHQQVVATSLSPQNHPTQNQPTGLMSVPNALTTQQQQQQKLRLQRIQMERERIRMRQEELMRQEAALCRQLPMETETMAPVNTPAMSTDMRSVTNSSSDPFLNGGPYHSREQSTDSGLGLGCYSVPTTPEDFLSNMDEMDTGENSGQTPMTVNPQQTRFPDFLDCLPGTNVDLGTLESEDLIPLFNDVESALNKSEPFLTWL
TAZ 1-163 (N-terminal domain of TAZ), Flag-tagged: residues 1-163 of Q9EPK5
TAZ 1-123 (N-terminal 123-amino acid region of TAZ), Flag-tagged: residues 1-123 of Q9EPK5
TAZ 124-395 (C-terminal domain of TAZ containing the WW domain), Flag-tagged: residues 124-395 of Q9EPK5

Results are given in words; binding and its absence hold for the method and conditions named. Binding seen in cells or lysates may run through a third protein. Some binding calls cover weakened binding; strength is not graded here. For part of these data: Tags and fused reporters may be left off the sequences shown.

Experiment [1] concerns the target Flag-tagged full-length TAZ (transcriptional coactivator with PDZ-binding motif) (UniProt Q9EPK5). The experiment in a line: co-IP; HEK-293T cells transfected (calcium phosphate) with Flag-tagged TAZ forms and Myc- or GFP-tagged NRF2 forms; lysates immunoprecipitated with Flag-M2 agarose beads overnight; immunoblot with anti-Myc (9E10) or anti-GFP (B-2). (Immunoblotting shows a protein as a band on a membrane.)

The target in experiment [2] is TAZ 1-123 (N-terminal 123-amino acid region of TAZ), Flag-tagged (UniProt Q9EPK5). The description is as above.
The target in experiment [3] is TAZ 124-395 (C-terminal domain of TAZ containing the WW domain), Flag-tagged (UniProt Q9EPK5). The experiment is described as above.
The target in experiment [4] is TAZ 1-163 (N-terminal domain of TAZ), Flag-tagged (UniProt Q9EPK5). Described as above.
For experiment [5], the target named is Endogenous TAZ (mouse (endogenous in lung tissue and MEF cells)) (UniProt Q9EPK5). Nature of the experiment: co-IP; endogenous proteins; mouse lung extracts and MEF cell lysates of WT and TAZ KO mice incubated with anti-TAZ antibody and then protein A/G-agarose beads; immunoblot for NRF2 and TAZ.

B1: Myc-linked NRF2 (nuclear factor erythroid 2-related factor 2) (protein, UniProt Q60795 1-597)
chain: MMDLELPPPGLQSQQDMDLIDILWRQDIDLGVSREVFDFSQRQKDYELEKQKKLEKERQEQLQKEQEKAFFAQFQLDEETGEFLPIQPAQHIQTDTSGSASYSQVAHIPKQDALYFEDCMQLLAETFPFVDDHESLALDIPSHAESSVFTAPHQAQSLNSSLEAAMTDLSSIEQDMEQVWQELFSIPELQCLNTENKQLADTTAVPSPEATLTEMDSNYHFYSSISSLEKEVGNCGPHFLHGFEDSFSSILSTDDASQLTSLDSNPTLNTDFGDEFYSAFIAEPSDGGSMPSSAAISQSLSELLDGTIEGCDLSLCKAFNPKHAEGTMEFNDSDSGISLNTSPSRASPEHSVESSIYGDPPPGFSDSEMEELDSAPGSVKQNGPKAQPAHSPGDTVQPLSPAQGHSAPMRESQCENTTKKEVPVSPGHQKAPFTKDKHSSRLEAHLTRDELRAKALHIPFPVEKIINLPVDDFNEMMSKEQFNEAQLALIRDIRRRGKNKVAAQNCRKRKLENIVELEQDLGHLKDEREKLLREKGENDRNLHLLKRRLSTLYLEVFSMLRDEDGKPYSPSEYSLQQTRDGNVFLVPKSKKPDTKKN
Take B1: the binding entry in experiment [1] was “binds”; in experiment [2] it was “binds”; in experiment [3], “no binding”; in experiment [4], “binds”.

B2: Endogenous NRF2 (protein, UniProt Q60795 1-597)
chain: B1 chain
In the case of B2, the binding result in experiment [5] was “binds”.

B3: NRF2 131-597 (NRF2 with the 1-130 aa region removed) (domain or fragment, UniProt Q60795 131-597)
chain: DDHESLALDIPSHAESSVFTAPHQAQSLNSSLEAAMTDLSSIEQDMEQVWQELFSIPELQCLNTENKQLADTTAVPSPEATLTEMDSNYHFYSSISSLEKEVGNCGPHFLHGFEDSFSSILSTDDASQLTSLDSNPTLNTDFGDEFYSAFIAEPSDGGSMPSSAAISQSLSELLDGTIEGCDLSLCKAFNPKHAEGTMEFNDSDSGISLNTSPSRASPEHSVESSIYGDPPPGFSDSEMEELDSAPGSVKQNGPKAQPAHSPGDTVQPLSPAQGHSAPMRESQCENTTKKEVPVSPGHQKAPFTKDKHSSRLEAHLTRDELRAKALHIPFPVEKIINLPVDDFNEMMSKEQFNEAQLALIRDIRRRGKNKVAAQNCRKRKLENIVELEQDLGHLKDEREKLLREKGENDRNLHLLKRRLSTLYLEVFSMLRDEDGKPYSPSEYSLQQTRDGNVFLVPKSKKPDTKKN
As for B3, in experiment [1], the binding entry is recorded as “binds”.
